# According to the supplement of paper PMC8728848:
# Some of the results follow.
# B1: PX14375F-bfa-539-21-539 (Bacteroides fragilis) (protein)
# chain: EDFLQKDPPSSPSQSVFWQKKSDFESALAGTYSVMYSGVFSQIMPCLDGLTDNAIVQHSEGTYGWAKTIAQGDLTPNQGGFVTDIYGNCYKGIARVHILMEQLDQYTGSDISADEKKFMLAQCKALRGYFYSWLYQCYKEVPVVTQSLDLNTMYQPKATRAEVLNRVMTDYDEAISELPDKLYSDSQTSGRFTVSAVKALKARILLFDAYDSNGKAISSKMEEVLTLLQSIKGYSLAARVRDNFISEKQLASPEIMFSVRFLRPNLTHSMDLYYGAWAVLDPTRNMVDAFECTDGKPWGESPLTVRPDESILYGNDDALKKAERAKMFMNRDRRLYESVNHSMMANFVDDGFKDEEVQVNESNNKGPTGFSALKYVQPTDVTPGYSTVSDADIVVLRYAHVLLMIAEAENEAHGATTTALNAINEVRTRSGQPAIEAGISQDDLRERIRNEWRIETCFEGLRYFQLKRWKLMDKRVNGVEDPAYPGYIKVYKPAFEFFPIPQSEIDKAGGVLKQDPAYE
# Tests used:
# Test in all cases: glycan array binding signal (z-score within array); higher = stronger binding
# Details in all cases: glycan notation: IUPAC condensed, linker removed
# Neu5Ac(a2-8)Neu5Ac = target: Neu5Ac(a2-8)Neu5Ac
# In short: (§1)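 Columns mapping to the same glycan were averaged after glycan names were converted to IUPAC-condensed notation. The data come from 3228 arrays in the Consortium for Functional Glycomics database, limited to those with an available protein sequence. Binding is reported as a within-array Z-score averaged across arrays of one protein sequence and across linkers.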
# [1] = target: Neu5Ac(a2-8)Neu5Ac(a2-3)Gal(b1-3)GalNAc(b1-4)[Neu5Ac(a2-3)]Gal(b1-4)Glc
# In short: as §1
# [2] = target: Neu5Ac(a2-8)Neu5Ac(a2-3)Gal(b1-3)GalNAc(b1-4)[Neu5Ac(a2-8)Neu5Ac(a2-3)]Gal(b1-4)Glc
# In short: as §1
# [3] = target: Neu5Ac(a2-8)Neu5Ac(a2-3)Gal(b1-4)Glc
# In short: as §1
# [4] = target: Neu5Ac(a2-8)Neu5Ac(a2-3)Gal(b1-4)GlcNAc
# In short: as §1
# [5] = target: Neu5Ac(a2-8)Neu5Ac(a2-3)[Gal(b1-3)GalNAc(b1-4)]Gal(b1-4)Glc
# In short: as §1
# [6] = target: Neu5Ac(a2-8)Neu5Ac(a2-3)[GalNAc(b1-4)]Gal(b1-4)Glc
# In short: as §1
# [7] = target: Neu5Ac(a2-8)Neu5Ac(a2-8)Neu5Ac
# In short: as §1
# [8] = target: Neu5Ac(a2-8)Neu5Ac(a2-8)Neu5Ac(a2-3)Gal(b1-4)Glc
# In short: as §1
# [9] = target: Neu5Ac(a2-8)Neu5Ac(a2-8)Neu5Ac(a2-3)[Gal(b1-3)GalNAc(b1-4)]Gal(b1-4)Glc
# In short: as §1
# [10] = target: Neu5Ac(a2-8)Neu5Ac(a2-8)Neu5Ac(a2-3)[GalNAc(b1-4)]Gal(b1-4)Glc
# In short: as §1
# [11] = target: Neu5Ac(a2-8)Neu5Ac(a2-8)Neu5Ac(a2-8)Neu5Ac(a2-3)[GalNAc(b1-4)]Gal(b1-4)Glc
# In short: as §1
# [12] = target: Neu5Ac(a2-8)Neu5Gc(a2-3)Gal(b1-4)GlcNAc
# In short: as §1
# [13] = target: Neu5Ac(b2-6)Gal(b1-4)GlcNAc
# In short: as §1
# Neu5Ac(b2-6)GalNAc = target: Neu5Ac(b2-6)GalNAc
# In short: as §1
# [14] = target: Neu5Ac9Ac(a2-3)Gal(b1-3)GlcNAc
# In short: as §1
# [15] = target: Neu5Ac9Ac(a2-3)Gal(b1-4)GlcNAc
# In short: as §1
# [16] = target: Neu5Ac9Ac(a2-6)Gal(b1-4)GlcNAc
# In short: as §1
# [17] = target: Neu5Gc(a2-3)Gal(b1-3)GlcNAc
# In short: as §1
# [18] = target: Neu5Gc(a2-3)Gal(b1-3)[Fuc(a1-4)]GlcNAc
# In short: as §1
# Neu5Gc(a2-3)Gal(b1-4)Glc = target: Neu5Gc(a2-3)Gal(b1-4)Glc
# In short: as §1
# [19] = target: Neu5Gc(a2-3)Gal(b1-4)GlcNAc
# In short: as §1
# [20] = target: Neu5Gc(a2-3)Gal(b1-4)GlcNAc(b1-3)Gal(b1-4)GlcNAc(b1-2)Man(a1-3)[Neu5Gc(a2-3)Gal(b1-4)GlcNAc(b1-3)Gal(b1-4)GlcNAc(b1-2)Man(a1-6)]Man(b1-4)GlcNAc(b1-4)GlcNAc
# In short: as §1
# [21] = target: Neu5Gc(a2-3)Gal(b1-4)[Fuc(a1-3)]GlcNAc
# In short: as §1
# [22] = target: Neu5Gc(a2-6)Gal(b1-4)GlcNAc
# In short: as §1
# Neu5Gc(a2-6)GalNAc = target: Neu5Gc(a2-6)GalNAc
# In short: as §1
# [23] = target: Neu5Gc(a2-8)Neu5Ac(a2-3)Gal(b1-4)GlcNAc
# In short: as §1
# [24] = target: Neu5Gc(a2-8)Neu5Gc(a2-3)Gal(b1-4)GlcNAc
# In short: as §1
# [25] = target: Neu5Gc(a2-8)Neu5Gc(a2-3)Gal(b1-4)GlcNAc(b1-3)Gal(b1-4)GlcNAc
# In short: as §1
# [26] = target: Neu5Gc(a2-8)Neu5Gc(a2-6)Gal(b1-4)GlcNAc
# In short: as §1
# [27] = target: Neu5Gc(b2-6)Gal(b1-4)GlcNAc
# In short: as §1
binder,measurement,setting,value
B1,glycan array binding signal (z-score),Neu5Ac(a2-8)Neu5Ac,-0.05
same,glycan array binding signal (z-score),[1],0.117
same,glycan array binding signal (z-score),[2],-0.94
same,glycan array binding signal (z-score),[3],-0.457
same,glycan array binding signal (z-score),[4],-0.36
same,glycan array binding signal (z-score),[5],-0.369
same,glycan array binding signal (z-score),[6],0.33
same,glycan array binding signal (z-score),[7],-0.205
same,glycan array binding signal (z-score),[8],0.605
same,glycan array binding signal (z-score),[9],0.326
same,glycan array binding signal (z-score),[10],0.11
same,glycan array binding signal (z-score),[11],0.394
same,glycan array binding signal (z-score),[12],15.8
same,glycan array binding signal (z-score),[13],-0.545
same,glycan array binding signal (z-score),Neu5Ac(b2-6)GalNAc,-0.648
same,glycan array binding signal (z-score),[14],0.053
same,glycan array binding signal (z-score),[15],-0.407
same,glycan array binding signal (z-score),[16],-0.23
same,glycan array binding signal (z-score),[17],0.148
same,glycan array binding signal (z-score),[18],-0.435
same,glycan array binding signal (z-score),Neu5Gc(a2-3)Gal(b1-4)Glc,0.697
same,glycan array binding signal (z-score),[19],-0.782
same,glycan array binding signal (z-score),[20],0.994
same,glycan array binding signal (z-score),[21],0.311
same,glycan array binding signal (z-score),[22],-0.915
same,glycan array binding signal (z-score),Neu5Gc(a2-6)GalNAc,-0.558
same,glycan array binding signal (z-score),[23],-0.605
same,glycan array binding signal (z-score),[24],-0.496
same,glycan array binding signal (z-score),[25],-0.032
same,glycan array binding signal (z-score),[26],-0.48
same,glycan array binding signal (z-score),[27],-0.376
